# From PubChem BioAssay AID1745853 (National Center for Advancing Translational Sciences (NCATS), 2022)
# The other results are listed elsewhere or left out. Further columns of the screen follow, without active or inactive calls.
# Legend:
# Test in all cases: Primary Screen for Target Class Profiling of Small Molecule Inhibitors of Methyltransferases
# [1] = target: Glycine N-methyltransferase (Homo sapiens) (UniProt Q14749); conditions: purified enzyme, MTase-Glo SAH luminescence; measured here: GNMT inhibition; at 40 µM; stronger effect = lower value
# Outline: (§1)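 Each enzyme was assayed with SAM and its substrate. SAH formation detected by MTase-Glo luminescence; single-point 40 uM screen[…].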
# [2] = target: Guanidinoacetate N-methyltransferase (Homo sapiens) (UniProt Q14353); conditions: purified enzyme, MTase-Glo SAH luminescence; measured here: GAMT inhibition; at 40 µM; stronger effect = lower value
# Outline: as §1
# [3] = target: Histamine N-methyltransferase (Homo sapiens) (UniProt P50135); conditions: purified enzyme, MTase-Glo SAH luminescence; measured here: HNMT inhibition; at 40 µM; stronger effect = lower value
# Outline: as §1
# [4] = target: Nicotinamide N-methyltransferase (Homo sapiens) (UniProt P40261); conditions: purified enzyme, MTase-Glo SAH luminescence; measured here: NNMT inhibition; at 40 µM; stronger effect = lower value
# Outline: as §1
# [5] = target: Phenylethanolamine N-methyltransferase (Homo sapiens) (UniProt P11086); conditions: purified enzyme, MTase-Glo SAH luminescence; measured here: PNMT inhibition; at 40 µM; stronger effect = lower value
# Outline: as §1
# % is scaled to controls: 0 for no effect and ±100 for the full control effect.
Compound,"activity change, negative = inhibition [1]","activity change, negative = inhibition [2]","activity change, negative = inhibition [3]","activity change, negative = inhibition [4]","activity change, negative = inhibition [5]"
Nc1nc2[nH]c(=O)cnc2c(=O)[nH]1,-8.03%,-2.16%,-3.12%,-10.4%,-0.185%
CCNC(=O)[C@H]1O[C@H](n2cnc3c(NCC(c4ccccc4)c4ccccc4)nc(C(=O)NCCNC(=O)NC4CCN(c5ccccn5)CC4)nc32)[C@H](O)[C@@H]1O,-3.07%,20.5%,-17.5%,-6.07%,9.04%
C=CCN1CCN(C(=O)C2N(c3ccc(OC)cc3)C(=O)C23CCCCC3)CC1 (stereo not given),-2.66%,-0.092%,0.464%,-0.51%,14.5%
Cc1ccc(CNC(=O)CSc2nnc3n(Cc4ccccc4)c(=O)c4ccccc4n23)cc1,-1.27%,-0.982%,5.68%,-10.8%,-4.15%
Cc1ccc(CNC(=O)C(C)n2ccc3cc(S(=O)(=O)N4CCCC4)ccc32)cc1 (stereo not given),2.24%,1.97%,-1.64%,-4.4%,-2.71%
CC(C)CNC(=O)c1ccc2c(=O)n(C(C)C)c3nn(CC(=O)Nc4ccccc4F)c(=O)n3c2c1,-1.28%,3.9%,-1.31%,-2.91%,0.69%
CCCn1c(=O)c2cc(F)ccc2n2c(SCC(=O)Nc3cccc(OC)c3)nnc12,-5.9%,5.21%,2.81%,0.254%,0.756%
CC(C)CCNC(=O)C1(C)Cn2c(cc3ccccc32)C(=O)N1Cc1ccccc1F (stereo not given),3.27%,0%,2.31%,4.34%,-1.23%
Cn1c(=O)n(C)c2cc(S(=O)(=O)N(Cc3ccco3)C(=O)c3ccco3)ccc21,0.856%,4.3%,4.95%,-0.254%,0.446%
Cc1ccc(Cn2c(=O)c3ccccc3n3c(SCC(=O)NC4CCCCC4)nnc23)cc1,3.56%,0%,9.27%,-0.121%,4.03%
O=C(Nc1ccc(F)c(Cl)c1)N1Cc2c(sc3c2CCCC3)-n2cccc2C1c1ccccc1 (stereo not given),3.48%,0%,0.511%,3%,8.19%
CN(C)C[C@@H]1CN(C)C[C@H]1NS(=O)(=O)c1ccccc1F,-1.21%,-3.12%,-0.332%,-6.24%,11%
Cc1cc2[nH]c(=O)[nH]c2cc1S(=O)(=O)N1CCOCC1,-0.439%,0%,0.283%,0.867%,-4.58%
OCC1O[C@H](O)C(Cl)C(O)C1O (stereo not given in full),6.28%,12%,11.7%,-4.97%,3.09%
N#Cc1ccnc(N2C(=O)CC[C@H]2C(=O)N(c2cncc(F)c2)[C@H](C(=O)NC2CC(F)(F)C2)c2ccccc2Cl)c1,3.11%,5.48%,3.96%,-13.4%,-5.57%
CCc1noc(-c2ccn3c(CNC(=O)Cc4c[nH]c5ccccc45)nnc3c2)n1,-3.17%,-7.18%,-1.41%,-5.68%,1.65%
